Experimental data: PubChem BioAssay AID624417 (National Center for Advancing Translational Sciences (NCATS), 2012)
Hit rate of the full screen: of about 410,000 compounds, about 6,400 (1.6%) were called active. The inconclusive results got no clear call from the source; some entries with a clear call stand among them for comparison. Calls follow the shape of the dose curve; as a rule, active = well fitted inhibition curve with a large enough effect; inconclusive = small, poorly fitted or top-dose-only effect; inactive = no such curve, though single readings can be large or run the other way. No potency is given beside an inconclusive call; the fits are too rough.

Target: Glucagon-like peptide 1 receptor (Homo sapiens) (UniProt P43220)
Sequence of UniProt P43220 (P43220 whole entry, looked up): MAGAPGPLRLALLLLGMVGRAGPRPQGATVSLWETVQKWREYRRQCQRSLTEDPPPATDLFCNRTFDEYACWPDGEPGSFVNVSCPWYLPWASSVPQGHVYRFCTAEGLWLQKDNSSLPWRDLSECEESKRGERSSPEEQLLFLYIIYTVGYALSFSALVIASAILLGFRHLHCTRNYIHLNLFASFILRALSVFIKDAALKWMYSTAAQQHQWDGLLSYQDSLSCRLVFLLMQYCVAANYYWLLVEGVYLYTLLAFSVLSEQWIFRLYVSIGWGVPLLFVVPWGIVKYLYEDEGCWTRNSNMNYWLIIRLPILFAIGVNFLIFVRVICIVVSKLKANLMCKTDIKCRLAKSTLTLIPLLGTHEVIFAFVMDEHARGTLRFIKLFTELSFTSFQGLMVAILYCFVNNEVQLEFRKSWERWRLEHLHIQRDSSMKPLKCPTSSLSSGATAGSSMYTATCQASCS
Assay: qHTS of GLP-1 Receptor Inverse Agonists (Inhibition Mode); also: nearly all actives have a fitted effect of over 55% in size
Conditions: HEK293 GLP-1R CRE-luciferase, luminescence, 24 h, GLP-1R form is constitutively active; activity change, negative = inhibition: at 38.3 µM (top of the series) unless noted
Method in brief: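 HEK293 cells stably co-expressing a cAMP-responsive luciferase reporter and constitutively active GLP-1R were seeded, incubated 12 h, then exposed to compounds for 24 h at 37 C. Luminescence was read 12 min after detection reagent; inverse agonists lower signal.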
% is scaled to controls: 0 for no effect and ±100 for the full control effect; potency is read from the fitted curve at half-maximal effect; tags tell the direction and shape of the fitted curve.

SMILES	Potency	activity change, negative = inhibition
CN(C)c1ccc(/C=N/N=C2/NC(=O)/C(=C/c3ccc([N+](=O)[O-])cc3)S2)cc1	inconclusive [inhibitor, full curve, poor fit]	–
COC(=O)[C@]1(Cc2ccccc2)N[C@H](c2ccc(-c3ccccc3)cc2)[C@@H]2C(=O)N(C)C(=O)[C@@H]21	inconclusive [inhibitor, single point]	–
Cc1ccc(NC(=O)c2ccc(Nc3c([N+](=O)[O-])cc([N+](=O)[O-])cc3[N+](=O)[O-])cc2)cc1	–	inactive: 0%
O=C1CCCc2c1[nH]c1ccccc21	–	inactive: 6.08%
Cc1cccc(NC(=O)CNC(=O)c2cccc(S(=O)(=O)NCc3cccs3)c2)c1C	inconclusive [inhibitor, single point]	–
COc1ccc(CN2C(=O)C(CC(=O)NCc3cccc4ccccc34)CC(C(=O)N(C(C)C)C(C)C)=C2C)cc1 (stereo not given)	inconclusive [inhibitor, single point]	–
CCc1ccc(-n2nc(CO)c(C(=O)NCc3cccs3)n2)cc1	inconclusive [inhibitor, partial curve]	–
Cc1c(/C=C/C(=O)c2ccc(C(C)C)cc2)cnn1C	inconclusive [inhibitor, single point]	–
COc1ccc(N2CCN(CCCn3c(=S)[nH]c4ncccc4c3=O)CC2)cc1	–	inactive: 0%
CC(C)(C)N1C(=O)[C@H]2[C@@H](c3ccc(Br)cc3)N3C(=O)N(c4cccc(F)c4)C(=O)[C@@]3(Cc3ccccc3)[C@H]2C1=O	inconclusive [inhibitor, partial curve, poor fit]	–
Cc1cc(NC(=S)N(Cc2ccc(Cl)cc2)Cc2ccc(C(=O)O)cc2)ccc1Cl	active: 8.91 µM	–
O=C(c1ccc(Cl)c(Cl)c1)c1cc(-c2ccccn2)c(N2CCOCC2)s1	inconclusive [inhibitor, partial curve, poor fit]	–
COc1ccc(-c2nc3ccc(Cl)cn3c2Nc2ccc(C)cc2)cc1	inconclusive [inhibitor, partial curve, poor fit]	–
Cc1ccc(C(=O)NCC(c2ccco2)S(=O)(=O)c2ccc(Cl)cc2)cc1C (stereo not given)	–	inactive: -25.8%
COc1ccccc1NC(=O)CNc1ccc(F)c(Cl)c1	inconclusive [inhibitor, single point]	–
COc1ccc(OCC2c3cc(OC)c(OC)cc3CCN2C(=O)c2c(F)cccc2F)cc1 (stereo not given)	–	inactive: 22.1%
COc1ccc(-c2c(-c3ccc(O)cc3O)n[nH]c2C(F)(F)F)cc1	inconclusive [inhibitor, partial curve, poor fit]	–
COc1ccc(NC(=O)CN(C)S(=O)(=O)c2ccc3c(c2)c(=O)n(C)c(=O)n3C)cc1	inactive	–
COc1ccc(OC)c(NC(=O)Cn2cnc3onc(-c4ccc(Cl)cc4)c3c2=O)c1	inconclusive [inhibitor, full curve, poor fit]	–
COc1cccc(-c2nc(CS(=O)(=O)CC(=O)NCCc3ccc(Cl)cc3)c(C)o2)c1	inconclusive [inhibitor, single point]	–

SMILES	Potency	activity change, negative = inhibition
Cc1c(C(=O)Nc2ccc(S(=O)(=O)N(C)C3CCN(C)CC3)cc2)oc2ccccc12	inconclusive [inhibitor, partial curve, poor fit]	–
Cc1ccc(-n2ncc3c(Nc4cccc(C(F)(F)F)c4)ncnc32)cc1C	inconclusive [inhibitor, full curve, poor fit]	–
CCOC(=O)c1cc(NC(=O)Cc2ccc(S(=O)(=O)N3CCOCC3)s2)cc(C(=O)OCC)c1	inconclusive [inhibitor, partial curve, poor fit]	–
Cc1cc2c(cc1S(=O)(=O)NCc1ccccc1Cl)OCC(=O)N2	–	inactive: 22.2%
O=S(=O)(c1cccc(Br)c1)N1CCN(CCc2ccccc2)CC1	inconclusive [inhibitor, partial curve, poor fit]	–
CCN(CCS(=O)(=O)c1ccc(Cl)cc1)C(=O)Nc1ccc(Cl)cc1	inconclusive [inhibitor, single point]	–
COc1cccc(CN2c3ccc(Br)cc3C(=O)CS2(=O)=O)c1	inconclusive [inhibitor, partial curve, poor fit]	–
CC1CCCCN1C(=O)CSc1c2c(nc3cc(Cl)ccc13)CCCC2 (stereo not given)	–	inactive: -5.2%
COc1cccc(NC(=O)C(NCCC(C)C)c2ccccc2)c1 (stereo not given)	inconclusive [inhibitor, single point]	–
CCN(CC)C(=O)c1[nH]cnc1C(=O)N[C@@H](CCCCNC(=O)OC(C)(C)C)C(=O)OC(C)(C)C	–	inactive: 4.04%
CC(C)Oc1ccc(/C=N/NC(=O)c2nnn(-c3nonc3N)c2CN(C)c2ccccc2)cc1	inconclusive [inhibitor, partial curve]	–
CCCCC1(COC(=O)CCC(=O)O)C(=O)N(c2ccccc2)N(c2ccccc2)C1=O	–	inactive: -0.968%
CN(C(=O)c1cccc(NC(=O)c2ccco2)c1)c1ccccc1	–	inactive: 13.4%
CC(NC(=O)c1ccc(F)cc1F)C1CC2CCC1C2 (stereo not given)	inconclusive [inhibitor, single point]	–
Cc1ccc(C)c(-n2nnc(C(=O)Nc3ccc(Br)cc3)c2C)c1	inconclusive [inhibitor, partial curve, poor fit]	–
CCOc1ccccc1N1CCN(C(=O)Nc2cccc(Cl)c2)CC1	inconclusive [inhibitor, partial curve, poor fit]	–
Cc1ccc(F)cc1NC(=O)N1CCCN(c2ccc(C(F)(F)F)cn2)CC1	inconclusive [inhibitor, single point]	–
O=C(Nc1cc(Cl)cc(Cl)c1)c1cc(S(=O)(=O)N2CCC3(CC2)OCCO3)ccc1F	inconclusive [inhibitor, single point]	–
COc1ccc(Cc2c(-c3ccc(F)cc3)nc3ccc(Br)cn23)c(C)c1	–	inactive: 14.1%
Cc1cccc(NC(=O)c2cccc(S(=O)(=O)N3CCCCC3)c2)c1	inconclusive [inhibitor, partial curve, poor fit]	–
